The results in this text go back to the RNAGym collection of RNA variant scans (doi:10.7554/elife.90254).

The source gives no read counts; variants with many changes may rest on few reads.

B1: OR4K15 (parent)
chain: GUUAACGGUCAUAGGCCAUGGAAACUAGGAGCACCAUUUCGCUGCCAGUGAAGAAAUGAACAAAGAAAAUCUGGGCCAGGCAGGCAUCAAAAGAAAUAGUCUUGCGCUCAACCAGAAAGUCUGUAAUCAUUUUAAGGGUA

In the data set the parent is B1. The experiment in a line: self-cleavage, relative activity (ratio to wild type); higher = more cleavage; in vitro, sequencing; the parent is a self-cleaving ribozyme.
Consider GUUAACGGUCAUAGGCCAUGGAAACUAGGAGCACCAUUUCGCUGCCAGUGAAGAAAUGAACAAAGAAUACCUGGGCCAGGCAGGCAUCAAAAGAAAUAGUCUUGCGCUCAACCAGGAGGUCUGUAAUCAUUUUAAGGGUA [A68U U70C A116G A118G], for which the self-cleavage was found to be 1.88. For the variant GUUAACGGUCAUAGGCCAUGGAAACUAGGAGCACCAUUUCGCUGCCAGUGAAGAAAUGAACAAAGAAAGUCUGGGCCAGGCAGGCAUCAAAAGAGAUAGUCUUGCGCUCGACCAGAAAGUCCGUAAUCAUUUUAAGGGUA [A69G A95G A110G U122C], the self-cleavage was found to be 0.14.

Consider GUUAACGGUCAUAGGCCAUGGAAACUAGGAGCACCAUUUCGCUGCCAGUGAAGAAAUGAACAAAGAAAGUCUGGGCCAGGCAGGCACCAAAAGAAAUAGUCUUGCGCUCGACCAGAUAGUCUGUAGUCAUUUUAAGGGUA [A69G U87C A110G A117U A126G], for which the self-cleavage turned out to be 0.02. On to GUUAACGGUCAUAGGCCAUGGAAACUAGGAGCACCAUUUCGCUGCCAGUGAAGAAAUGAACAAAGAAAGUCUGGGCCAGGCAGGCUUCAAAGGAAAUAGUCUUGCGCUCACCCAGAGAGUCUGUAAUCAUUUUAAGGGUA [A69G A86U A92G A111C A117G], for which the self-cleavage came out at 0.04.

Regarding GUUAACGGUCAUAGGCCAUGGAAACUAGGAGCACCAUUUCGCUGCCAGUGAAGAAAUGAACAAAGAAAGUCUGGGCCAGGCAGGCAUCAGAAGAGAUAGUCUUGCGCUCAACCAGAAAGUCUGUAAUCAUUUUAAGGGUA [A69G A90G A95G], the self-cleavage stood at 0.79. With GUUAACGGUCAUAGGCCAUGGAAACUAGGAGCACCAUUUCGCUGCCAGUGAAGAAAUGAACAAAGAAACUCUGGGCCAGGCAGGCAUCAAAAGAAAUAGUCUUGCGCUCAACCAGAAAGUCUGUAGUCACUUUAAGGGUA [A69C A126G U130C] the figure was 0.67; with GUUAACGGUCAUAGGCCAUGGAAACUAGGAGCACCAUUUCGCUGCCAGUGAAGAAAUGAACAAAGAAAGUCUGGGCCUGGCAGGCAUCAAAAGAAAUAGUCUUGUGCUCAACCAGAAAGUCUGUAAUCAUUUUAGGGGUA [A69G A78U C105U A135G], 0.02; with GUUAACGGUCAUAGGCCAUGGAAACUAGGAGCACCAUUUCGCUGCCAGUGAAGAAAUGAACAAAGAAUAUCUGGGCCAGGCAGGCAUCAAAAGAAAUAGUCUUGCGCUCAACCAGAAAGUCUGUAAACGUUUUAAGGGUA [A68U U127A A129G], 1.31. Turning to GUUAACGGUCAUAGGCCAUGGAAACUAGGAGCACCAUUUCGCUGCCAGUGAAGAAAUGAACAAAGAAUAUCUGGGCCAGGCAGACAUCAAAAGAAAUAGUCUUGCGCUCAACCGGAAGGUCUGUAAUCAUUUUAAGGGUA [A68U G84A A114G A118G], the self-cleavage was 0.27. With GUUAACGGUCAUAGGCCAUGGAAACUAGGAGCACCAUUUCGCUGCCAGUGAAGAAAUGAACAAAGAAAGUCUGGGCCAGGCAGGCAUCAAAAGAAAUAGUCUUGCGCUCAACCAGAAGGUCUGUAAUCAUUUUAAGGGUU [A69G A118G A140U] the figure was 1.47; with GUUAACGGUCAUAGGCCAUGGAAACUAGGAGCACCAUUUCGCUGCCAGUGAAGAAAUGAACAAAGAAUACCUGGGCCAGGCAGGCAUCAAAAGAAAUACUCUUGCGCUCAACCAGAAGGUCUGUAAUCAUUCUAAGGGUA [A68U U70C G99C A118G U132C], 0; with GUUAACGGUCAUAGGCCAUGGAAACUAGGAGCACCAUUUCGCUGCCAGUGAAGAAAUGAACAAAGAAAGUCUGGGCCAGGCAGGCAUCAAAAGAAAUAGCCUGGCGCUCAACCAGAAGGUCUGUAACCAUUUUAAGGGUA [A69G U100C U103G A118G U127C], 0.01. Then GUUAACGGUCAUAGGCCAUGGAAACUAGGAGCACCAUUUCGCUGCCAGUGAAGAAAUGAACAAAGAAAGUCUGGGCCAGGCAGGCACCAAAAGAAAUAGUCUUGCGCUCAACCAGAAAGCCUGUAAUCACUUUAAGGGUA [A69G U87C U120C U130C], with 0.09; and GUUAACGGUCAUAGGCCAUGGAAACUAGGAGCACCAUUUCGCUGCCAGUGAAGAAAUGAACAAAGAAAGUCUGGGCCAGGCAGGCAUCAAAAGAAUUAGUCUUGCGCUCGACCAGAAAGUCUGUAAUCAUUUUAAGGGUA [A69G A96U A110G], with 0.09. Then GUUAACGGUCAUAGGCCAUGGAAACUAGGAGCACCAUUUCGCUGCCAGUGAAGAAAUGAACAAAGAAUAUCUAGGCCAGGCAGGCAUCAAAAGAAAUAGUCUUGCGCUCAACCAGAAGGUCCGUAAUCAUUUUAAGGGUA [A68U G73A A118G U122C], with 0.07; and GUUAACGGUCAUAGGCCAUGGAAACUAGGAGCACCAUUUCGCUGCCAGUGAAGAAAUGAACAAAGAAUACCUGGGCCAGGCAGGCAUCAAGAGAAAUAGUCUUGCGCUCAACCAGAAAGUCUGUAAUCAUUUUAAGGGUA [A68U U70C A91G], with 0.45; and GUUAACGGUCAUAGGCCAUGGAAACUAGGAGCACCAUUUCGCUGCCAGUGAAGAAAUGAACAAAGAAAGUCUGGGCCAGGCAGGCAUCAAAAGGGGGAGCCUUGCGCUCAACCAGAAAGUCUGUAAUCAUUUUAAGGGUA [A69G A94G A95G A96G U97G U100C], with 0.75.

Consider GUUAACGGUCAUAGGCCAUGGAAACUAGGAGCACCAUUUCGCUGCCAGUGAAGAAAUGAACAAAGAAAGUCUGGGCCAGGCAGGCAUCAAAAGAAAUAGUCUUGCGCCCAACCAGAAAGUCUGUAAUCAUUUUAGGGGUA [A69G U108C A135G], for which the self-cleavage worked out at 0.01. Turning to GUUAACGGUCAUAGGCCAUGGAAACUAGGAGCACCAUUUCGCUGCCAGUGAAGAAAUGAACAAAGAAUAUCUGGGCCAGGCAGGCAUCGAAAGAAAUAGUCUUGCGCUCAACCGGAAAGUCUGUAAUCAUUUUAUGGGUA [A68U A89G A114G A135U], the self-cleavage was determined as 0.63.

Take GUUAACGGUCAUAGGCCAUGGAAACUAGGAGCACCAUUUCGCUGCCAGUGAAGAAAUGAACAAAGAAAGUCCGGGCCAGGCAGGCAUCAAAAGAAAUAGCCUUGCGCUCAACCAGAAAGUCAGUCAUCAUUUUAAGGGUA [A69G U72C U100C U122A A125C]: the self-cleavage was 0.11.
